{"source": "PubChem BioAssay AID588778", "about": "(Southern Research Institute, 2011)", "note": "The list shows a part of the results. The main result of the screen is listed elsewhere. These columns were measured beside it and carry no call. Most of these compounds were active or inconclusive in the main read-out, so they are no random draw.", "data": [{"test": "Vibrio cholerae motility inhibitors, OD read-out (AID 588778)", "settings": "CC50: measured here: Vero cell cytotoxicity; IC50: measured here: V. cholerae viability alamarBlue; inhibition: measured here: bacterial viability at 10 ug/mL, stronger effect = higher value", "units": {"inhibition": "%", "IC50": "µg/mL", "CC50": "µg/mL"}, "values": [{"smiles": "O=C(CSc1ccccc1)Nc1cc(Cl)c(O)c(Cl)c1", "inhibition": 26.8}, {"smiles": "O=C(c1ccc(Br)cc1)n1c(Cc2ccccc2)nc2ccccc21", "inhibition": 27.4}, {"smiles": "N/C(=N\\c1nc(C(F)(F)F)cc(C(F)(F)F)n1)Nc1ccc([N+](=O)[O-])cc1", "inhibition": 37}, {"smiles": "CSc1ncc(C(=O)Nc2nccs2)cn1", "inhibition": 24.4}, {"smiles": "O=[N+]([O-])c1nn(Cc2ccc(F)cc2)cc1Br", "IC50": "> 50", "inhibition": 53.3}, {"smiles": "O=C1CCCC2=C1Sc1ccc(Cl)cc1N2", "inhibition": 26.6}, {"smiles": "O=C(Nc1cccc(Cl)c1)Nc1ccc(N2CCOCC2)c(C(F)(F)F)c1", "inhibition": 40.8}, {"smiles": "Nc1nc(NC(=O)c2ccco2)nn1-c1ccccc1", "IC50": "> 50", "inhibition": 38.8}, {"smiles": "O=[N+]([O-])c1cc(CN2CCOCC2)c2cccnc2c1O", "inhibition": 26.1}, {"smiles": "Cc1c(C=C(C#N)C#N)c(C)c([N+](=O)[O-])c(C)c1[N+](=O)[O-]", "inhibition": 23.3}, {"smiles": "CC(=O)Oc1ccccc1C(=O)NCCC1=CCCCC1", "inhibition": -2.71}, {"smiles": "Cc1cccc(NC(=S)NC2CCCC2)n1", "inhibition": -1.45}, {"smiles": "CCC(C(=O)Nc1ncn[nH]1)c1ccccc1", "note": "(stereo unspecified)", "inhibition": 0.36}, {"smiles": "CCOC(=O)c1ccc(NC(=S)NCCc2ccccc2F)cc1", "inhibition": 8.79}, {"smiles": "CCCOc1ccc(CNC(=O)NCc2ccc(OC(C)C)cc2)cc1", "inhibition": 7.48}, {"smiles": "Oc1cc(Oc2ccccc2)ccc1Cl", "inhibition": 34.4}, {"smiles": "Cc1cc(C)c(CCl)c(C)c1/C=N/Nc1ccc([N+](=O)[O-])cc1[N+](=O)[O-]", "inhibition": 7.46}, {"smiles": "CC(=O)Nc1cccc(NS(=O)(=O)Cc2ccc(Cl)cc2)c1", "inhibition": 28}, {"smiles": "COCCCNC(=S)NNC(=O)c1ccccn1", "inhibition": 32.2}, {"smiles": "O=c1cc(-c2ccccc2)nc(-c2ccccc2)o1", "inhibition": 21.7}, {"smiles": "Cc1ccc(C)c(Nc2nc(NCCO)c3ccccc3n2)c1", "CC50": "> 20", "IC50": 25.8, "inhibition": -0.74}, {"smiles": "O=C(c1c[nH]c2ccccc12)C(F)(F)F", "inhibition": 43.4}, {"smiles": "O=C(Nc1cccc(I)c1)C(Cl)Cl", "inhibition": 45.5}, {"smiles": "O=[N+]([O-])c1nn(Cc2c(F)cccc2Cl)cc1Cl", "IC50": "> 50", "inhibition": 25.9}, {"smiles": "CC(=O)NC(c1ccc2c(c1)OCO2)c1ccc2cccnc2c1O", "note": "(stereo unspecified)", "inhibition": 2.88}, {"smiles": "O=C(Nc1cc(Cl)ccc1O)C(c1ccccc1)c1ccccc1", "inhibition": -1.05}]}]}
